{"source": "PubChem BioAssay AID1460", "about": "(National Center for Advancing Translational Sciences (NCATS), 2008)", "note": "About 5,800 (2.1%) of roughly 270,000 compounds were called active. The shares of active, inactive and inconclusive entries below differ from those in the screen. Calls follow the shape of the dose curve; as a rule, active = well fitted inhibition curve with a large enough effect; inconclusive = small, poorly fitted or top-dose-only effect; inactive = flat fitted curve, though single readings scatter. A potency beside an inconclusive call is a rough fit, not a confirmed value. % is scaled to controls: 0 for no effect and ±100 for the full control effect; potency is read from the fitted curve at half-maximal effect; tags tell the direction and shape of the fitted curve."}
{"biological_target": "Microtubule-associated protein tau (Homo sapiens) (UniProt P10636)", "sequence (P10636 whole entry, looked up)": "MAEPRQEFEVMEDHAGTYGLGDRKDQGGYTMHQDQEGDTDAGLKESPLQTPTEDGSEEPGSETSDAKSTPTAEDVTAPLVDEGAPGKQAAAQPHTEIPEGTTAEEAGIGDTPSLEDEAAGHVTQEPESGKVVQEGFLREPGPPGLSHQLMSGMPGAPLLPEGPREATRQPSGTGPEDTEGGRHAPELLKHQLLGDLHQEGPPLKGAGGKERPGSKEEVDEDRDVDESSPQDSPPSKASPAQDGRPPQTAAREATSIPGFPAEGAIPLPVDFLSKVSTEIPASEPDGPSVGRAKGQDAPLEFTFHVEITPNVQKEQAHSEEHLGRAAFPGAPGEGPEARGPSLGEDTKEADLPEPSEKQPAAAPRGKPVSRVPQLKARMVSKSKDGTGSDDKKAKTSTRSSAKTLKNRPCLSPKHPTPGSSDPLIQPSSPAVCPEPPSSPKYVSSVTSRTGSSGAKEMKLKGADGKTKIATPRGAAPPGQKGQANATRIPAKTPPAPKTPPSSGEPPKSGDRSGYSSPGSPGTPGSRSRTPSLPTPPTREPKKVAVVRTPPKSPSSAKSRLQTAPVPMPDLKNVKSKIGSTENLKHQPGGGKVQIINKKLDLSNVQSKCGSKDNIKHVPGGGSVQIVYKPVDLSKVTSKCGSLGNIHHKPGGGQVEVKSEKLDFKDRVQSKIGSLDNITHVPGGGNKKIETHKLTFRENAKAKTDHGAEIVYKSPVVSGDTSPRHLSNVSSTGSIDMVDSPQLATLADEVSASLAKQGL", "assay": "qHTS for Inhibitors of Tau Fibril Formation, Thioflavin T Binding; also: nearly all actives have a fitted effect of over 55% in size", "settings": "recombinant tau K18 P301L, heparin-induced fibrillization, ThT fluorescence; series mostly up to 57.4 µM; activity, negative = inhibition: at the top concentration", "procedure,_shortened": "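Fibril formation assay: tau K18 P301L at 15 uM with trace Alexa 594 label, heparin inducer 20 uM, pH 7 sodium acetate buffer, 37 C for 6 hr; endpoint ThT signal.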"}
{"smiles": "CCOC(=O)C1(C)C=C(Nc2cccc(C(=O)O)c2)C(=O)N1c1ccccc1", "note": "(stereo unspecified)", "activity, negative = inhibition": "inactive: -12.2%"}
{"smiles": "CCOc1ccc(-c2nc(CSc3nnc(C)s3)cs2)cc1OC", "Potency": "inconclusive: 28.2 µM [inhibitor, single point]"}
{"smiles": "COc1ccc(NC(=O)/C(Cl)=C(/Cl)S(=O)(=O)Cc2ccc(C)cc2)cn1", "Potency": "active: 8.91 µM"}
{"smiles": "Brc1ccccc1-n1nnc(-c2ccnc3ccccc23)n1", "Potency": "inconclusive: 28.2 µM [inhibitor, single point]"}
{"smiles": "Cc1cc(N(C)C)ccc1[N+](=O)[O-]", "Potency": "inconclusive: 11.2 µM [inhibitor, partial curve]"}
{"smiles": "Cc1onc(-c2ccccc2)c1C(=O)n1nnc2ccccc21", "Potency": "inconclusive: 20 µM [inhibitor, partial curve]"}
{"smiles": "CC(C)(c1ccccc1)c1ccc(OCC(O)CNC2CCN(Cc3ccccc3)CC2)cc1", "note": "(stereo unspecified)", "Potency": "inconclusive: 15.8 µM [inhibitor, partial curve]"}
{"smiles": "CN(C(Cc1ccc(OS(=O)(=O)c2cccc3cnccc23)cc1)C(=O)N1CCN(c2ccccc2)CC1)S(=O)(=O)c1cccc2cnccc12", "note": "(stereo unspecified)", "Potency": "inactive"}
{"smiles": "O=C(NNc1nc2ccccc2s1)Nc1ccccc1", "Potency": "inconclusive: 3.55 µM [inhibitor, partial curve]"}
{"smiles": "COC(OC)c1ccc(C#N)c(SCc2ccc(C)cc2)n1", "activity, negative = inhibition": "inactive: -11.3%"}
{"smiles": "Fc1ccccc1Cc1noc(CN(Cc2ccccn2)CC2CCCO2)n1", "note": "(stereo unspecified)", "activity, negative = inhibition": "inactive: -0.0636%"}
{"smiles": "CN(C(=O)c1ccc(=O)[nH]c1)C1(C(=O)NC2CCCCC2)CCCCC1", "Potency": "inconclusive: 11.2 µM [inhibitor, partial curve]"}
{"smiles": "CCn1c(=O)cc(SCC(=O)NCC2CCCO2)c2ccccc21", "note": "(stereo unspecified)", "activity, negative = inhibition": "inactive: -7.03%"}
{"smiles": "CC(=O)C1=C(O)C(=O)N(CCN2CCOCC2)C1c1ccccc1", "note": "(stereo unspecified)", "activity, negative = inhibition": "inactive: -17.5%"}
{"smiles": "CCOc1ccccc1NC(=O)C(=O)Nc1ccc2nc3n(c(=O)c2c1)CCCCC3", "Potency": "inconclusive: 2.82 µM [inhibitor, partial curve]"}
{"smiles": "Cc1ccc2c(c1)c1cccc3c1n2CCN3CCC(N)=O", "Potency": "active: 11.2 µM"}
{"smiles": "Cc1cc(C)cc(NC(=O)C(Cc2ccccc2)NS(=O)(=O)c2ccc3c(c2)CCC(=O)N3)c1", "note": "(stereo unspecified)", "activity, negative = inhibition": "inactive: 2.35%"}
{"smiles": "CCOC(=O)N1CCC(NS(=O)(=O)c2ccc(C)c(Cl)c2)CC1", "activity, negative = inhibition": "inactive: -6.39%"}
{"smiles": "CCN(CC)c1nc2cc(OC)ccc2cc1C#N", "activity, negative = inhibition": "inactive: -3.53%"}
{"smiles": "COc1cc(NC(=O)CSc2c3c(nc4ccccc24)CCC3)cc(OC)c1OC", "Potency": "inconclusive: 11.2 µM [inhibitor, partial curve, poor fit]"}
{"smiles": "SC(COCc1ccccc1)CN1CCN(Cc2ccc3c(c2)OCO3)CC1", "note": "(stereo unspecified)", "Potency": "inconclusive: 15.8 µM [inhibitor, partial curve]"}
{"smiles": "COC(=O)C(C)N(C(=O)c1ccc(Cl)cc1)c1c(C)cccc1C", "note": "(stereo unspecified)", "activity, negative = inhibition": "inactive: -9.68%"}
{"smiles": "Cc1noc(/C=C/c2ccco2)c1S(=O)(=O)N1CCC(C(=O)N(C)Cc2ccccc2)CC1", "Potency": "inconclusive: 11.2 µM [inhibitor, partial curve]"}
{"smiles": "Cc1cccc2c(N=Nc3ccc(S(=O)(=O)Nc4ccc(Cl)cc4)cc3[N+](=O)[O-])c(O)[nH]c12", "Potency": "inconclusive: 10 µM [inhibitor, partial curve]"}
{"smiles": "CC(C)(C)c1ccc(CNc2ccc([N+](=O)[O-])cn2)cc1", "Potency": "inconclusive: 17.8 µM [inhibitor, partial curve]"}
{"smiles": "Cc1cc(C)c2c(N)c(C(=O)NCc3ccco3)sc2n1", "Potency": "inconclusive: 44.7 µM [inhibitor, single point]"}
{"smiles": "O=C1CSC(=NC2CCCCC2)N1", "Potency": "active: 22.4 µM"}
{"smiles": "CCC(=O)N1CCc2cc(S(=O)(=O)NCCC(=O)Nc3ccc(N(CC)CC)cc3C)ccc21", "Potency": "inconclusive: 22.4 µM [inhibitor, partial curve, poor fit]"}
{"smiles": "CN1/C(=C\\C(=O)c2cncc(Br)c2)C(C)(C)c2ccccc21", "Potency": "inconclusive: 11.2 µM [inhibitor, partial curve]"}
{"smiles": "COc1cc(/C=N/NC(=O)CSc2cc(C)c(Br)cc2C)ccc1O", "Potency": "inconclusive: 15.8 µM [inhibitor, partial curve]"}
{"smiles": "N#CCSC1=Nc2ccccc2C2=NC(CCC(=O)N3CCN(c4ccccc4)CC3)C(=O)N12", "note": "(stereo unspecified)", "Potency": "inconclusive: 35.5 µM [inhibitor, single point]"}
{"smiles": "CCCCC(=O)Nc1nc2ccc(C(=O)OC)cc2s1", "activity, negative = inhibition": "inactive: -12%"}
{"smiles": "CCCOc1ccc(N2C(=O)CC(N(CCC)C(=O)CCC(=O)O)C2=O)cc1", "note": "(stereo unspecified)", "activity, negative = inhibition": "inactive: -8.85%"}
{"smiles": "CCc1ccc(C2=C/C(=C/c3cccnc3)C(=O)O2)cc1", "Potency": "inconclusive: 6.31 µM [inhibitor, full curve]"}
{"smiles": "Cc1cc2cc3c(cc2nc1SCC(=O)N1c2ccccc2CC1C)OCO3", "note": "(stereo unspecified)", "activity, negative = inhibition": "inactive: -11.5%"}
{"smiles": "COc1ccc2c(=O)c3c(=O)n(Cc4ccco4)c(-c4ccco4)nc3oc2c1", "Potency": "active: 28.2 µM"}
{"smiles": "Cc1ccc(S(=O)(=O)/N=C(\\Sc2ccccc2)c2ccccc2)cc1", "Potency": "inconclusive: 28.2 µM [inhibitor, single point]"}
{"smiles": "O=c1c2ccccc2nc2n1CCCS2", "Potency": "inconclusive: 31.6 µM [inhibitor, partial curve]"}
{"smiles": "O=C(N/N=C/c1c(O)n(Cc2ccccc2)c(=O)c2ccccc12)c1cccnc1", "Potency": "inconclusive: 11.2 µM [inhibitor, partial curve]"}
{"smiles": "Cc1ccccc1-c1ccc(Nc2ccc(N3CCOCC3)cc2)nn1", "Potency": "active: 14.1 µM"}
{"smiles": "Cc1ccc(N=c2c([N+](=O)[O-])nn(-c3ccc4c(c3)OCCO4)n2O)cc1F", "Potency": "inconclusive: 4.47 µM [inhibitor, partial curve]"}
{"smiles": "NC(N)=NC(=S)Nc1ccc(Cl)cc1", "activity, negative = inhibition": "inactive: -11.1%"}
{"smiles": "O=C(CNC(=O)c1ccccc1Cl)N/N=C/c1ccc([N+](=O)[O-])s1", "Potency": "inconclusive: 15.8 µM [inhibitor, single point]"}
{"smiles": "CCc1c(C)c2cc3c(c(C)c2oc1=O)OCN(CCc1ccccc1F)C3", "Potency": "inconclusive: 44.7 µM [inhibitor, single point]"}
{"smiles": "CCn1cc(C(=O)NCCCN(C)c2ccccc2)c(=O)c2cc(S(=O)(=O)N(C)C)ccc21", "Potency": "inconclusive: 22.4 µM [inhibitor, single point]"}
{"smiles": "CCOC(=O)c1c(C)[nH]c(C(=O)COC(=O)/C=C/c2ccc3c(c2)OCO3)c1C", "Potency": "inconclusive: 0.708 µM [inhibitor, full curve, poor fit]"}
